# This is one part of the list.
# How the values were obtained:
# Assay in all cases: glycan array binding signal (z-score within array); higher = stronger binding
# Conditions in all cases: glycan notation: IUPAC condensed, linker removed
# [1] = target: GlcNAc(a1-4)Gal(b1-4)GlcNAc(b1-3)Gal(b1-4)GlcNAc
# How it was run: (§1)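 Negative Z-scores can be read as non-binding. The Z-score is calculated within each array and then averaged across arrays of one protein sequence at different concentrations or buffers and across linkers. Arrays, 3228 in all, were curated from the Consortium for Functional Glycomics database and kept only where the protein sequence was available.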
# [2] = target: GlcNAc(a1-4)Gal(b1-4)GlcNAc(b1-3)Gal(b1-4)GlcNAc(b1-3)Gal(b1-4)GlcNAc
# How it was run: as §1
# [3] = target: GlcNAc(a1-4)Gal(b1-4)GlcNAc(b1-3)Gal(b1-4)[Fuc(a1-3)]GlcNAc(b1-3)Gal(b1-4)[Fuc(a1-3)]GlcNAc
# How it was run: as §1
# [4] = target: GlcNAc(a1-6)Gal(b1-4)GlcNAc
# How it was run: as §1
# [5] = target: GlcNAc(b1-2)Gal(b1-3)GalNAc
# How it was run: as §1
# [6] = target: GlcNAc(b1-2)Man(a1-3)[GlcNAc(b1-2)Man(a1-6)]Man(b1-4)GlcNAc(b1-4)GlcNAc
# How it was run: as §1
# [7] = target: GlcNAc(b1-2)Man(a1-3)[GlcNAc(b1-2)Man(a1-6)]Man(b1-4)GlcNAc(b1-4)[Fuc(a1-6)]GlcNAc
# How it was run: as §1
# [8] = target: GlcNAc(b1-2)Man(a1-3)[GlcNAc(b1-4)][GlcNAc(b1-2)Man(a1-6)]Man(b1-4)GlcNAc(b1-4)GlcNAc
# How it was run: as §1
# [9] = target: GlcNAc(b1-2)[GlcNAc(b1-4)]Man(a1-3)[GlcNAc(b1-2)Man(a1-6)]Man(b1-4)GlcNAc(b1-4)GlcNAc
# How it was run: as §1
# [10] = target: GlcNAc(b1-2)[GlcNAc(b1-4)]Man(a1-3)[GlcNAc(b1-4)][GlcNAc(b1-2)Man(a1-6)]Man(b1-4)GlcNAc(b1-4)GlcNAc
# How it was run: as §1
# [11] = target: GlcNAc(b1-2)[GlcNAc(b1-4)]Man(a1-3)[GlcNAc(b1-4)][GlcNAc(b1-2)[GlcNAc(b1-6)]Man(a1-6)]Man(b1-4)GlcNAc(b1-4)GlcNAc
# How it was run: as §1
# [12] = target: GlcNAc(b1-2)[GlcNAc(b1-6)]Man(a1-6)[GlcNAc(b1-2)Man(a1-3)]Man(b1-4)GlcNAc(b1-4)GlcNAc
# How it was run: as §1
# [13] = target: GlcNAc(b1-2)[GlcNAc(b1-6)]Man(a1-6)[GlcNAc(b1-2)Man(a1-3)][GlcNAc(b1-4)]Man(b1-4)GlcNAc(b1-4)GlcNAc
# How it was run: as §1
# [14] = target: GlcNAc(b1-3)Gal
# How it was run: as §1
# [15] = target: GlcNAc(b1-3)Gal(b1-3)GalNAc
# How it was run: as §1
# [16] = target: GlcNAc(b1-3)Gal(b1-4)Glc
# How it was run: as §1
# [17] = target: GlcNAc(b1-3)Gal(b1-4)GlcNAc
# How it was run: as §1
# [18] = target: GlcNAc(b1-3)Gal(b1-4)GlcNAc(b1-3)Gal(b1-4)GlcNAc
# How it was run: as §1
# [19] = target: GlcNAc(b1-3)GalNAc
# How it was run: as §1
# [20] = target: GlcNAc(b1-3)Man
# How it was run: as §1
# [21] = target: GlcNAc(b1-3)[GlcNAc(b1-4)][GlcNAc(b1-6)]GlcNAc
# How it was run: as §1
# [22] = target: GlcNAc(b1-3)[GlcNAc(b1-6)]Gal(b1-4)GlcNAc
# How it was run: as §1
# [23] = target: GlcNAc(b1-3)[GlcNAc(b1-6)]GalNAc
# How it was run: as §1
# [24] = target: GlcNAc(b1-4)Gal(b1-4)GlcNAc
# How it was run: as §1
# [25] = target: GlcNAc(b1-4)GlcNAc
# How it was run: as §1
# [26] = target: GlcNAc(b1-4)GlcNAc(b1-4)GlcNAc
# How it was run: as §1
# [27] = target: GlcNAc(b1-4)GlcNAc(b1-4)GlcNAc(b1-4)GlcNAc(b1-4)GlcNAc
# How it was run: as §1
# [28] = target: GlcNAc(b1-4)GlcNAc(b1-4)GlcNAc(b1-4)GlcNAc(b1-4)GlcNAc(b1-4)GlcNAc
# How it was run: as §1
# [29] = target: GlcNAc(b1-4)[GlcNAc(b1-6)]GalNAc
# How it was run: as §1
# [30] = target: GlcNAc(b1-6)Gal(b1-4)GlcNAc
# How it was run: as §1
# [31] = target: GlcNAc(b1-6)GalNAc
# How it was run: as §1
# [32] = target: GlcNAc3Prop(b1-4)GlcNAc
# How it was run: as §1
# [33] = target: GlcNAc6S(b1-3)Gal(b1-4)GlcNAc
# How it was run: as §1
# [34] = target: Kdn(a2-3)Gal(b1-3)GalNAc
# How it was run: as §1
# [35] = target: Kdn(a2-3)Gal(b1-3)GlcNAc
# How it was run: as §1
# [36] = target: Kdn(a2-3)Gal(b1-4)Glc
# How it was run: as §1
# [37] = target: Kdn(a2-3)Gal(b1-4)GlcNAc
# How it was run: as §1
# [38] = target: Kdn(a2-3)Gal(b1-4)[Fuc(a1-3)]GlcNAc
# How it was run: as §1
# [39] = target: Kdn(a2-6)Gal(b1-4)GlcNAc
# How it was run: as §1
# [40] = target: Man(a1-2)Man(a1-2)Man(a1-3)Man
# How it was run: as §1
# [41] = target: Man(a1-2)Man(a1-2)Man(a1-6)[Man(a1-3)]Man
# How it was run: as §1
# [42] = target: Man(a1-2)Man(a1-3)Man
# How it was run: as §1
# [43] = target: Man(a1-2)Man(a1-3)[Man(a1-2)Man(a1-6)]Man
# How it was run: as §1
# [44] = target: Man(a1-2)Man(a1-3)[Man(a1-2)Man(a1-6)]Man(a1-6)[Man(a1-2)Man(a1-2)Man(a1-3)]Man
# How it was run: as §1
# [45] = target: Man(a1-2)Man(a1-3)[Man(a1-2)Man(a1-6)]Man(a1-6)[Man(a1-2)Man(a1-2)Man(a1-3)]Man(b1-4)GlcNAc(b1-4)GlcNAc
# How it was run: as §1
binder,measurement,setting,value
"CV-2L (Chromobacterium violaceum), Q7NX84 (protein) MAQQGVFTLPARINFGVTVLVNSAATQHVEIFVDNEPRAAFSGVGTGDNNLGTKVINSGSGNVRVQITANGRQSDLVSSQLVLANKLNLAVVGSEDGTDMDYNDSIVILNWPLG",glycan array binding signal (z-score),[1],-0.246
same,glycan array binding signal (z-score),[2],-0.347
same,glycan array binding signal (z-score),[3],-0.238
same,glycan array binding signal (z-score),[4],-0.342
same,glycan array binding signal (z-score),[5],-0.338
same,glycan array binding signal (z-score),[6],-0.345
same,glycan array binding signal (z-score),[7],-0.267
same,glycan array binding signal (z-score),[8],-0.356
same,glycan array binding signal (z-score),[9],-0.209
same,glycan array binding signal (z-score),[10],-0.341
same,glycan array binding signal (z-score),[11],-0.344
same,glycan array binding signal (z-score),[12],-0.339
same,glycan array binding signal (z-score),[13],-0.337
same,glycan array binding signal (z-score),[14],-0.339
same,glycan array binding signal (z-score),[15],-0.337
same,glycan array binding signal (z-score),[16],-0.346
same,glycan array binding signal (z-score),[17],-0.334
same,glycan array binding signal (z-score),[18],-0.34
same,glycan array binding signal (z-score),[19],-0.345
same,glycan array binding signal (z-score),[20],-0.343
same,glycan array binding signal (z-score),[21],-0.35
same,glycan array binding signal (z-score),[22],-0.349
same,glycan array binding signal (z-score),[23],-0.349
same,glycan array binding signal (z-score),[24],-0.339
same,glycan array binding signal (z-score),[25],-0.343
same,glycan array binding signal (z-score),[26],-0.347
same,glycan array binding signal (z-score),[27],-0.35
same,glycan array binding signal (z-score),[28],-0.336
same,glycan array binding signal (z-score),[29],-0.341
same,glycan array binding signal (z-score),[30],-0.358
same,glycan array binding signal (z-score),[31],-0.343
same,glycan array binding signal (z-score),[32],-0.332
same,glycan array binding signal (z-score),[33],-0.35
same,glycan array binding signal (z-score),[34],-0.275
same,glycan array binding signal (z-score),[35],-0.33
same,glycan array binding signal (z-score),[36],-0.336
same,glycan array binding signal (z-score),[37],-0.31
same,glycan array binding signal (z-score),[38],-0.337
same,glycan array binding signal (z-score),[39],-0.342
same,glycan array binding signal (z-score),[40],-0.155
same,glycan array binding signal (z-score),[41],0.627
same,glycan array binding signal (z-score),[42],-0.177
same,glycan array binding signal (z-score),[43],-0.175
same,glycan array binding signal (z-score),[44],0.425
same,glycan array binding signal (z-score),[45],0.113

# Source: the supplement of paper PMC8728848
